PubChem BioAssay AID652104 (National Center for Advancing Translational Sciences (NCATS), 2013)
About 7,200 (1.8%) of roughly 410,000 compounds were called active. The inconclusive results got no clear call from the source; some entries with a clear call stand among them for comparison. The call rests on the fitted dose curve; in most records, active means well fitted activation curve with a large enough effect; inconclusive means small, poorly fitted or top-dose-only effect, or another doubt; inactive means no such curve, though single readings can be large or run the other way. Where the call is inconclusive, the potency comes from a doubtful curve fit.

test: qHTS of TDP-43 Inhibitors; details: TDP-43 expressing yeast growth rescue, BacTiter-Glo, 24 h; growth rescue (activation): at 46.1 µM (top of the series) unless noted; further: nearly all actives have a fitted effect of over 50% in size; on growth rescue (activation): % of control where 0% means no effect
In short: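 Galactose-induced TDP-43 yeast, OD600=0.02, compound pinned; 24 hr, 30 deg C; BacTiter-Glo luminescence for growth. Inhibitors of TDP-43 toxicity read as activators.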
Potency means the concentration at half of the fitted maximal effect; tags describe the fitted curve by direction and shape.

Potency, inconclusive:
CC(COc1ccc(/C=C/c2ccccc2)cc1)[N+](C)(C)C (centres undefined) 35.5 µM [activator, partial curve], c1ccc(C[n+]2csc3ccccc32)cc1 12.6 µM [activator, single point], Cc1ccc(NC(=O)C2CC(=O)N(c3ccc4c5c(cccc35)CC4)C2)cc1 (centres undefined) 3.55 µM [activator, partial curve, poor fit], COc1ccc(Cl)cc1NC(=O)c1ccc2c(c1)CCCN2S(C)(=O)=O 35.5 µM [activator, single point], CN1C(=O)C(=O)N(c2cccc(C(F)(F)F)c2)C1=O 15.8 µM [activator, single point], CCc1cccc(NC(=O)CCc2nc(-c3cccs3)no2)c1 22.4 µM [activator, partial curve, poor fit], CCOC(=O)Cn1c(=O)n(C2CCCC2)c(=O)c2ccccc21 20 µM [activator, partial curve], CCCCC(=O)N1CCN(c2nc3ccc(OCC)cc3s2)CC1 10 µM [activator, partial curve], Cc1cccc2nc3c(nc12)-c1ccccc1C3=O 2.82 µM [activator, full curve], COc1ccc(C2NC(=O)c3ccccc3O2)cc1 (centres undefined) 12.6 µM [activator, single point], CCc1c(C)nc2cc(-c3ccc(OC)c(OC)c3)nn2c1N1CCCC1 12.6 µM [activator, single point], CCOC(=O)c1ccccc1NC(=O)CSc1nnc(COc2ccccc2)n1CC 17.8 µM [activator, partial curve], COC(=O)CCC(=O)Nc1nc(-c2ccccc2)cs1 5.01 µM [activator, full curve], COc1ccc(Cl)cc1NC(=O)CSC1=NN2CCCC(=O)N=C2S1 15.8 µM [activator, single point], O=C(c1c(F)cccc1F)N(Cc1cccs1)C1CCCC1 22.4 µM [activator, partial curve], COc1ccccc1NC(=O)c1ccc([N+](=O)[O-])o1 25.1 µM [activator, single point], Oc1ccc(Oc2ccc3c(C(F)(F)F)cc(C(F)(F)F)nc3n2)cc1 3.98 µM [activator, single point], CCCc1cc(C(=O)Nc2cc(OC)ccc2OC)cs1 11.2 µM [activator, partial curve], Cc1cc(C)c(S(=O)(=O)NCCc2csc3nc(-c4ccc(Cl)cc4)nn23)c(C)c1 10 µM [activator, partial curve, poor fit], CC(C)C[C@H](NC(=O)[C@@H]1Cc2c([nH]c3ccccc23)C2c3ccccc3C(=O)N21)C(=O)N1CCC[C@@H]1C(=O)O (some centres undefined) 5.62 µM [activator, partial curve], Cc1ccc(C2CCN(C(=O)Nc3ccc(C)c(C)c3)C2)cc1 (centres undefined) 3.55 µM [activator, partial curve], Cc1cc(Br)ccc1NC(=O)CCSc1ccccc1 7.94 µM [activator, partial curve], O=C(CSc1nnc(-c2ccccc2)o1)N1CCc2ccccc2C1 15.8 µM [activator, single point], COc1ccc(CCC(=O)NCCc2csc(-c3cccc(C)c3)n2)cc1 35.5 µM [activator, single point], O=C(Nc1ccc(Cl)c(-c2nc3cc(Cl)ccc3o2)c1)c1cc2ccccc2o1 35.5 µM [activator, partial curve], Cc1sc2ncnc(N3CCC(C(=O)Nc4ccc(Cl)c(Cl)c4)CC3)c2c1C 11.2 µM [activator, partial curve], COc1ccc(Cl)cc1NC(=O)CN(C)C(=O)c1cc2c(s1)CCCC2 31.6 µM [activator, single point], Cc1ccccc1OCc1ccc(-c2nc(C#N)c(N3CCC(C(N)=O)CC3)o2)o1 0.891 µM [activator, full curve], ClCCn1cnc2c(SCc3ccccc3Cl)ncnc21 15.8 µM [activator, single point], Cc1ccc2c(CC(=O)NCc3cccs3)coc2c1 10 µM [activator, partial curve], CC(C)c1ccc(NC(=S)NCc2ccc3c(c2)OCO3)cc1 17.8 µM [activator, single point], Cc1cnc(NC(=O)COc2cccc3c2OC(C)(C)C3)s1 20 µM [activator, partial curve], CCCCCc1c(-c2ccc(F)cc2F)ncn1CCc1ccccc1OC 2.82 µM [activator, partial curve]

Potency, active:
Cc1cc(NS(=O)(=O)c2ccc(C(C)C)cc2)no1 14.1 µM, CSc1c(-c2ccccn2)c(N)nn1C(=O)C1CCC1 11.2 µM, Brc1cc2c(cc1Br)OCCOCCOCCO2 20 µM

Potency, inactive:
CC(=O)c1c2c3c(c(Br)ccc3n(C)c1=O)C(=O)c1ccccc1-2, O=C(O)c1cc(-c2ccc(C(F)(F)F)cc2)nc2n[nH]c(-c3ccccc3)c12, Nc1ccc(C(=O)Nc2cccc(N)c2)cc1, COc1cc(NC(=O)CC2C(=O)N(c3cccc(C)c3)C(=O)N2Cc2cccs2)cc(OC)c1 (centres undefined), Cc1ccccc1NS(=O)(=O)c1nnc(NC(=O)c2ccco2)s1, CCOc1ccc2c(c1)c(=O)c(S(=O)(=O)c1ccc(Cl)cc1)cn2Cc1ccccc1C

Growth rescue (activation), inactive:
Cc1ccc(NC(=O)c2sc3ncnc(N(C)C4CCCCC4)c3c2C)cc1 28.1% [at 9.22 µM]

Growth rescue (activation), inconclusive:
COc1ccc(/C=C/C(=O)c2ccc(Cl)s2)cc1O -72.4% [activator]
